Data reported in PubChem BioAssay AID1259400 (National Center for Advancing Translational Sciences (NCATS), 2018).
Hit rate of the full screen: of about 350,000 compounds, about 2,100 (0.6%) were called active. The shares of active, inactive and inconclusive entries below differ from those in the screen.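 How the source made its calls: active means activity change of -60% or lower, but not beyond a set lower limit; inconclusive means change between -60% and -40%, or beyond the set limit; inactive means change above -40%.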 Some compounds were tested as several samples or in several runs, with calls that do not always agree.

These compounds were tested against Relaxin receptor 1 (Homo sapiens) (UniProt Q9HBX9) (assay: qHTS Assay for Antagonists of the Relaxin Receptor RXFP1). Details: HEK293-RXFP1, relaxin-stimulated cAMP HTRF, 30 min; at 57.5 µM; hits give low values.
Chain of UniProt Q9HBX9 (Q9HBX9 whole entry, looked up): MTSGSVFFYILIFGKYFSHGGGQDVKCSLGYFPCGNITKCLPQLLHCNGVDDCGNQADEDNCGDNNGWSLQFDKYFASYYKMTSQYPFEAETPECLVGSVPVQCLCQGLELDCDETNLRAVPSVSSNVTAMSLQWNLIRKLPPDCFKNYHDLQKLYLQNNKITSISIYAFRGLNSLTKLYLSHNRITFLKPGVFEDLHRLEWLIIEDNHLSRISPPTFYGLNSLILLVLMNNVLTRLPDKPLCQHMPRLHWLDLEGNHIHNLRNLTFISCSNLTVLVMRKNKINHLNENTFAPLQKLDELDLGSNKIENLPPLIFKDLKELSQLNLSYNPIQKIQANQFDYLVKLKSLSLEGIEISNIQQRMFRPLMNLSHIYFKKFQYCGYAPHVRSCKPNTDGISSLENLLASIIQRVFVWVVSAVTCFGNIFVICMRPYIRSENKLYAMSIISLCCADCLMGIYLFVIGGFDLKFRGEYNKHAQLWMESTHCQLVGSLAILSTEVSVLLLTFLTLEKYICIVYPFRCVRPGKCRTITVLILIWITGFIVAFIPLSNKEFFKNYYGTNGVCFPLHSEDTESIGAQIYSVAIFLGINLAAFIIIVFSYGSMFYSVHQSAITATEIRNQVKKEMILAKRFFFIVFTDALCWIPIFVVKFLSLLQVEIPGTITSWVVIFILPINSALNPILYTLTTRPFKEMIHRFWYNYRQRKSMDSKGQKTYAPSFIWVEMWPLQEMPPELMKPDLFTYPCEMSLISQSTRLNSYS
On the % scale 0 is the no-effect control and ±100 the full control effect.

Compound	activity change, negative = inhibition
CCc1cccc(NC(=O)c2cccc3c2C(=O)N(CC2CCCO2)C3)c1 (configuration not stated)	inactive: -6.47%
NC(=S)N/N=C1\CC(c2ccc3c(c2)OCCCO3)Oc2ccc(F)cc21 (configuration not stated)	active: -61.3%
CCc1ccccc1NS(=O)(=O)c1ccc(OC)c2ncccc12	inconclusive: -43.8%
COc1ccc(N(Cc2cccs2)C(=O)COc2cccc(Cl)c2)cc1	inconclusive: -54.5%
COc1ccc(NC(=O)CSc2nc(N)c3cc4c(nc3n2)CC(C)(C)OC4)cc1	inconclusive: -49.3%
Cc1cccc(N2CCN(C(=O)NCc3noc4ccccc34)CC2)c1C	inconclusive: -44.6%
Cc1ccn2c(Nc3ccccc3C)c(-c3ccccn3)nc2c1	inconclusive: -54.3%
CCN(CC)C(=O)C1CCN(S(=O)(=O)c2ccc3c(c2)CCCN3C(C)=O)CC1	inactive: -11.8%
CCCCCCNC(=O)Cc1ccc(Br)cc1	inconclusive: -48%
O=S(=O)(/C(=C\c1ccc(C(F)(F)F)cc1)c1nc2ccccc2[nH]1)c1ccccc1	active: -76.9%
CC1CCN(S(=O)(=O)c2ccc3c(c2)oc(=O)n3CC(=O)NCc2ccc(F)cc2)CC1	inconclusive: -42.7%
c1ccc2nc(-c3nc4ccccc4[nH]3)ccc2c1	inactive: 5.68%
CC(=O)N(C(C)=O)N1C(=O)/C(=C/c2ccc(Cl)cc2)SC1=S	active: -109%
CCN(c1cc(C)cc(C)c1)S(=O)(=O)c1nnc(NC(=O)C2CCCCC2)s1	inactive: 0.463%
CCOc1cc(-c2ccc(OC(=O)c3ccccc3F)cc2)cc(=O)c2c(C)oc(C)c12	active: -97.4%
O=C(Nc1c(C(=O)N2CCOCC2)oc2ccccc12)c1cccc([N+](=O)[O-])c1	inactive: -5.71%
Cc1ccccc1-c1nc(C#N)c(N2CCC(C)CC2)o1	inconclusive: -40.3%
N=C1/C(=C\c2ccc(OC(=O)c3ccccc3)cc2)C(=O)N=C2SC(N3CCOCC3)=NN12	inconclusive: -43.2%
CCC(Cc1ccccc1)NS(=O)(=O)c1c(C)nc2scc(C)n2c1=O (configuration not stated)	inactive: 16.7%
CCOc1ccc(CNC(=O)CSc2nnc(C)c3c(C)n(-c4ccc(Cl)cc4)nc23)cc1	inactive: -10.7%
CC1=CC2C(C(O)CC3(C)C2CC(C)C32OCOC23COCO3)C2(C)C/C(=C\O)C(=O)C=C12 (configuration not stated)	active: -75.7%
O=C(/C=C\NCC(=O)c1ccccc1)c1ccc2ccccc2c1	inconclusive: -42%

Compound	activity change, negative = inhibition
O=C(NCCC1=CCCCC1)c1ccc(Cl)c(S(=O)(=O)N2CCCCC2)c1	inactive: 12.2%
Cc1c(C(=O)N2CCC(C)CC2)c(S(=O)(=O)N(Cc2ccccc2)C(C)(C)C)c(C)n1C	inactive: -9.84%
COc1cc(OC)nc(-n2ncc(Br)c(Br)c2=O)n1	inactive: -15.9%
O=S(=O)(Nc1cccc(-c2ccc(N3CCCCCC3)nn2)c1)c1ccc(F)cc1	active: -76.2%
CC(=O)Nc1ccc(-c2nnn(CC(=O)Nc3ccc4c(c3)OCO4)n2)cc1Cl	inconclusive: -50.4%
COc1ccc(CN2CCNC(=O)C2CC(=O)NC2CCCCCC2)cc1C (configuration not stated)	inconclusive: -48.1%
CCOc1cccc(/C=N/N2C(=O)CSC2=S)c1O	inconclusive: -41.3%
O=C(NC(=S)NCCc1ccccn1)c1ccco1	inconclusive: -52.2%
Cc1ccc(NC(=O)CSc2nnc3nc(C)cc(C)n23)cc1	inactive: 1.85%
O=C1C=C(N2CCCCC2)c2ccccc2C1=O	inactive: 4.19%
COc1ccc(-c2ccc(-c3noc(-c4ccccc4)n3)c(OC)n2)cc1	inactive: -6.69%
COCCNC(=O)/C(C#N)=C/c1ccc(OC(=O)c2cccs2)c(OC)c1	inconclusive: -57.2%
CCOC(=O)c1c(C)nc(C)c(C(=O)OCC)c1-c1cccc(N)c1	inactive: 9.4%
Cc1ccc(C(=O)CC(=O)COc2ccc(Cl)cc2)cc1	inconclusive: -43.4%
CC(C)(C)C(=O)NC(=S)NNC(=O)c1sc2ccccc2c1Cl	inconclusive: -59.1%
CC(C)(C)C(=O)Nc1ccc(S(=O)(=O)N2CCC(c3nc4ccccc4[nH]3)CC2)cc1	inconclusive: -42.2%
O=C(Nc1cccnc1)c1ccc(CSc2ccccc2)cc1	inactive: -9.65%
CC(NC(=O)c1ccc(Br)cc1)c1ccc2c(c1)CCCC2 (configuration not stated)	inconclusive: -40.4%
COc1ccc(NC(=O)COc2coc(CN3c4ccccc4CC3C)cc2=O)cc1 (configuration not stated)	inconclusive: -47.6%
CCN1CCN(C(=S)Nc2ccsc2C(=O)OC)CC1	inconclusive: -43.3%
CCOC(=O)C1CCCN(C2CC(=O)N(c3ccc(NC(C)=O)cc3)C2=O)C1 (configuration not stated)	inconclusive: -51%
CN1CCN(c2ncnc3c2c(-c2ccccc2)cn3-c2ccc(F)cc2)CC1	inconclusive: -48.3%

Compound	activity change, negative = inhibition
COc1cccc(-c2cc(C(=O)NCc3ccco3)c3ccccc3n2)c1	active: -86.2%
C=CCNC(=O)/C(C#N)=C/c1cc(Br)ccc1OC	active: -67.7%
COc1ccc(N2CCN(C(=O)CCS(=O)(=O)c3cccc4nsnc34)CC2)cc1	inconclusive: -50.2%
CC(C)c1ccc(NC(=O)C2CCN(C(=O)[C@@H]3Cc4ccccc4CN3)CC2)cc1	inconclusive: -54.3%
CC1CN(S(=O)(=O)c2cccc(C(=O)Nc3ccccc3N3CCCC3)c2)CC(C)O1 (configuration not stated)	inconclusive: -45.6%
Cc1c(CCNC(=O)c2ccc(Br)o2)sc2nc(-c3ccc(Cl)cc3)nn12	inconclusive: -41.7%
CC(C)CC(=O)Nc1ccc2c(c1)oc1ccccc12	inactive: 1.12%
CCCCOP(=O)(OCCCC)C1(C)CC(=O)CC(C)(C)C1 (configuration not stated)	inactive: -32.2%
CCOC(=O)c1ccc2c(c1)nc(SCC(=O)c1cc3ccccc3o1)n2CC	inconclusive: -47.3%
CC(=O)Nc1ccc2c(c1)Cc1cc(N3C(=O)C=CC3=O)ccc1-2	active: -61.4%
O=C(NCC(c1cccnc1)N1CCN(c2ccccc2F)CC1)C(=O)Nc1ccc(F)cc1F (configuration not stated)	inconclusive: -41.3%
CC(=O)CCSc1ncnc2sc(-c3ccccc3)cc12	inconclusive: -50.7%
CCOc1ccccc1NC(=O)CCCc1nc(-c2ccccc2Cl)no1	inactive: -3.54%
CCn1c2ccccc2c2cc(CN3CCN(Cc4cc(OC)c(O)c(OC)c4)CC3)ccc21	active: -67.1%
Cc1ccc(N(Cc2cccs2)C(=O)C(C)Oc2ccc(Cl)c(C)c2)cc1 (configuration not stated)	active: -99.9%
CC(C)c1ccc(Nc2nnc(SCC(=O)c3nnc(-c4ccccc4)o3)s2)cc1	active: -83.3%
CCc1sc(C(=O)Nc2nc(C)cs2)cc1C	inconclusive: -43.5%
CC(C)(C)C(=O)OCc1nc(-c2ccc(O)c(O)c2)cs1	inconclusive: -42.2%
OC(CNCc1ccncc1)c1ccccc1 (configuration not stated)	inactive: -7.8%
CC1CCC(C(C)C)C(OC(=O)Cn2c(-c3ccc(F)cc3)[n+](C)c3ccccc32)C1 (configuration not stated)	inconclusive: -53.5%
Cc1cccc(CS(=O)(=O)c2ncc(Cl)c(C(=O)NCc3ccccc3)n2)c1	active: -62.2%
CC1=NC(=O)C(N=Nc2ccccc2C(=O)O)N1c1ccccc1 (configuration not stated)	inconclusive: -50%

Compound	activity change, negative = inhibition
COCCNc1ncnc2c1c(-c1ccccc1)cn2-c1cccc(Cl)c1	inconclusive: -44.6%
CCOC(=O)C1CCN(C(=O)CN2C(=O)C(C(C)C)Oc3ccccc32)CC1 (configuration not stated)	inactive: 1.76%
CN(C)/C=C/c1onc(-c2ccccc2Cl)c1C#N	inactive: -27.6%
CN1CCC(N(C)C(=O)c2cc(S(=O)(=O)N3CCOCC3)ccc2Cl)CC1	inactive: 1.51%
O=C(Nc1nc2c(s1)CCCC2)c1ccc(Br)s1	inconclusive: -50.9%
Cc1cc(C)n(-c2nc3ccccc3n3cnnc23)n1	inactive: 2.73%
COc1ccc(-c2onc(C)c2C)cc1S(=O)(=O)NC1CCC(C)CC1 (configuration not stated)	inactive: -9.19%
C=CCn1c(SCC(=O)Nc2cc(C)on2)nc2sc3c(c2c1=O)CCCC3	inactive: 3.64%
CCOc1cc(CNCc2ccccc2)ccc1OCc1ccc(Cl)cc1	active: -95.9%
Cc1c(NS(=O)(=O)c2ccc(Cl)c(C(=O)OC(C)C(=O)NCc3ccco3)c2)c(=O)n(-c2ccccc2)n1C (configuration not stated)	inconclusive: -42.9%
Cc1ccc(Cl)cc1N1CCN(C(=O)c2ccc(C)c(-n3c(C)nc4cccnc43)c2)CC1	active: -64.3%
COc1ccc(S(=O)(=O)N2CCN(C(=O)c3cc4c(s3)CCC4)CC2)cc1	inconclusive: -45.6%
CNC(=O)Nc1cccc(-c2cc(-c3c(Cl)cccc3Cl)no2)c1	inconclusive: -52.1%
COc1cc(C(=O)NCC2CCCN2S(=O)(=O)c2cccs2)cc(OC)c1OC (configuration not stated)	active: -82%
CCOC(=O)N1CCN(C(=O)CCS(=O)(=O)c2ccc3c(c2)CC(C)N3C(=O)CC)CC1 (configuration not stated)	active: -91.6%
Cc1ccc(NC(=S)N(CCCN2CCCC2)Cc2cccn2Cc2ccc(Cl)cc2)cc1Cl	inconclusive: -40.4%
Cc1cccc(N2CCN(C(=O)C3CCN(c4nnc(-n5cccc5)s4)CC3)CC2C)c1 (configuration not stated)	active: -67.5%
C=C(C)COc1ccc(-c2n[nH]c(C)c2-c2ccc(OC)c(OC)c2)c(O)c1	inconclusive: -48.1%
COc1cc(C2Nc3cccc4cccc(c34)N2)cc(OC)c1OC(C)=O	inconclusive: -56.4%
NS(=O)(=O)c1ccc(CCNCc2ccccc2OCc2ccc(Cl)cc2)cc1	inconclusive: -41.6%
CCOc1ccc(C(C)=O)cc1CN1C(=O)NC2(CCCCCC2)C1=O	active: -101%
